{"source": "PubChem BioAssay AID602332", "about": "(National Center for Advancing Translational Sciences (NCATS), 2012)", "note": "Hit rate of the full screen: of about 420,000 compounds, about 75 (0.02%) were called active. The inconclusive results got no clear call from the source; some entries with a clear call stand among them for comparison. Calls come from the whole dose curve; as a rule, active = well fitted activation curve with a large enough effect; inconclusive = small, poorly fitted or top-dose-only effect; inactive = no such curve, though single readings can be large or run the other way. Where the call is inconclusive, the potency comes from a doubtful curve fit. Potency is the fitted concentration of half-maximal effect; tags give direction and shape of the fitted curve.", "data": [{"assay": "qHTS for Inducers of the Endoplasmic Reticulum Stress Response (ERSR) in Human Glioma: qHTS; note: nearly all actives have a fitted effect of over 35% in size; for activation: % of control where 0% means no effect", "settings": "U87-MG GRP78 promoter luciferase reporter, 16 h; activation: stronger effect = higher value", "outline": "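Stably transfected U87-MG glioma cells carrying a GRP78-based luciferase sensor; 16 h compound incubation. Luminescence end-point read 10 min after Bright-Glo addition at room temperature.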", "values": [{"smiles": "COc1ccc(N(C(=O)c2ccco2)S(=O)(=O)c2cc(OC)ccc2OC)cc1", "Potency": "active: 39.8 µM"}, {"smiles": "CCOc1cccc(/C=N/NC(=O)C2CCCC2)c1O", "Potency": "inconclusive: 2.24 µM [activator, partial curve, poor fit]"}, {"smiles": "O=c1cc(O)cc(/C=C/c2ccc(O)c(O)c2)o1", "Potency": "inconclusive: 5.21 µM [activator, partial curve, poor fit]"}, {"smiles": "Cc1ccc2c(c1)c1c(n2CC(O)Cn2c(C)nc3ccccc32)/C(=N\\O)CCC1", "note": "(centres undefined)", "activation": "inactive: -18.6%"}, {"smiles": "Cc1nc(SCCO)c([N+](=O)[O-])[nH]1", "activation": "inactive: -2.71%"}, {"smiles": "CCOC(=O)CSc1nc2c(sc(=S)n2-c2ccc(CC)cc2)c(=O)[nH]1", "Potency": "active: 39.8 µM"}, {"smiles": "Clc1ccc(CN2CCc3c([nH]c4ccccc34)C2)cc1Cl", "Potency": "inconclusive: 28.2 µM [activator, single point]"}, {"smiles": "COc1cc(NC(=O)c2cc(C)no2)cc(OC)c1OC", "Potency": "inconclusive: 50.1 µM [activator, single point]"}, {"smiles": "COC(=O)C1=C(C)N(c2cc(C)cc(C)c2)/C(=C/c2ccc(O)cc2)C1=O", "Potency": "inconclusive: 44.7 µM [activator, single point]"}, {"smiles": "O=C(CSc1ccc(Cl)cc1)N1CCN(c2c(Cl)cccc2[N+](=O)[O-])CC1", "Potency": "inconclusive: 28.2 µM [activator, single point]"}, {"smiles": "COc1ccc(C(=O)NC(=S)NNC(=O)c2ccccc2C)cc1", "Potency": "inconclusive: 44.7 µM [activator, partial curve, poor fit]"}, {"smiles": "CCN(Cc1ccc(OC)c(COC)c1)CC1CCCN(CCc2cccc(F)c2)C1", "note": "(centres undefined)", "activation": "inactive: -4.75%"}, {"smiles": "CCC(=O)Nc1sc2c(c1C(=O)Nc1ccc(Br)cc1)CCCCC2", "activation": "inactive: -2.82%"}, {"smiles": "CCc1ccccc1N(CC)C(=O)C1CCN(c2ncnc3c2nc2n3CCCCC2)CC1", "Potency": "inconclusive: 22.4 µM [activator, full curve, poor fit]"}, {"smiles": "CCOC(=O)c1sc(N/N=C/c2cc(Br)c(O)c(OC)c2)nc1C", "Potency": "inconclusive: 44.7 µM [activator, partial curve, poor fit]"}, {"smiles": "COC(=O)COc1ccc(/C=N/NS(=O)(=O)c2ccccc2)cc1", "Potency": "inconclusive: 14.1 µM [activator, full curve, poor fit]"}, {"smiles": "O=C(N/N=C\\C=C\\c1ccco1)C1COc2ccccc2O1", "note": "(centres undefined)", "Potency": "inconclusive: 39.8 µM [activator, partial curve, poor fit]"}, {"smiles": "CCOc1ccc(NC(=O)C2CCN(C(=O)NC3CCCCC3)CC2)cc1", "activation": "inactive: -2.77%"}, {"smiles": "COc1cc(/C=C2\\SC(=S)N(C(C(=O)O)c3ccccc3)C2=O)cc(OC)c1OC", "note": "(centres undefined)", "Potency": "active: 31.6 µM"}]}]}
